We go through 56 sequences from a collection of fitness landscapes (doi:10.1038/s41467-024-54723-y).

Whole data set: some 18,000 sequences, median “TetR repression strength (sort-seq, GFP reporter)” near 0.23, cut for the highest 2% near 0.68. This is one part of the list.

UniProt P04483, sequence (P04483 whole entry): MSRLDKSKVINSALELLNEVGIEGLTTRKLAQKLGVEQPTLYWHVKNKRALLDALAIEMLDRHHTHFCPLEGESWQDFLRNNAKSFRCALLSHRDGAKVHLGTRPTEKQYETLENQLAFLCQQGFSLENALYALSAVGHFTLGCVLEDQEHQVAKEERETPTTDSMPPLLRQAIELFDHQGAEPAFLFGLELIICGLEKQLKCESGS

In the test the target is TetR (class B, Tn10) (UniProt P04483). The experiment in a line: TetR repression strength (sort-seq, GFP reporter) (relative to tetO2 = 1); higher = stronger repression. Conditions: E. coli. The procedure, abridged:
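Three independent transformations of E. coli SIG10-MAX were made with a low-copy plasmid library randomizing eight operator positions between a constitutive promoter and sfGFP, with constitutive TetR. Following 5 h at 37 °C in LB plus 50 µg/mL chloramphenicol, 10^6 cells went through FACS into 13 fluorescence bins, and each bin was sequenced by Illumina. Repression strength was defined as the top bin index plus one minus the read-weighted mean bin, divided by the unaltered operator's value. Averages included only members reaching ≥30 reads in all replicates with a CV ≤0.5.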
In turn, TCCCTTCTAGTTTTTGAGA came in with a TetR repression strength of 0.415.

TCCCATCCAGTAATGGAGA registered a TetR repression strength of 0.278. TCCCCGTGAGTGGGTGAGA yielded a TetR repression strength of 0.171.

With TCCCGGTTAGTGTAGGAGA, the TetR repression strength was 0.172.

Consider TCCCATTGAGTGAAGGAGA, for which the TetR repression strength turned out to be 0.59. Sequence TCCCCCACAGTGACAGAGA returned a TetR repression strength of 0.239. Regarding TCCCTTCCAGTGCCGGAGA, the TetR repression strength came out at 0.0663. TCCCGGCGAGTAATCGAGA: the TetR repression strength worked out at 0. In turn, TCCCGAGTAGTGGAAGAGA yielded a TetR repression strength of 0.339. For TCCCGGTTAGTCTTTGAGA the value was 0.12. Next, TCCCTTCCAGTTTGTGAGA: 0.388. As to TCCCCCAAAGTGCCGGAGA, the TetR repression strength came to 0.143. For the sequence TCCCGGGCAGTAGTTGAGA, the TetR repression strength was 0.238. TCCCGGGTAGTGACCGAGA had a TetR repression strength of 0.167. In the case of TCCCCGAGAGTTCATGAGA, the TetR repression strength was 0.176. TCCCCCCAAGTGTATGAGA yielded a TetR repression strength of 0.317. Next, TCCCGTCGAGTTGAGGAGA: 0.17. TCCCACATAGTCCAGGAGA had a TetR repression strength of 0.224.

Sequence TCCCTAGAAGTACATGAGA displayed a TetR repression strength of 0.235. As to TCCCTTATAGTAGAGGAGA, the TetR repression strength stood at 0.0704. In turn, TCCCCCTTAGTGGATGAGA came in with a TetR repression strength of 0.157.

The sequence TCCCATGGAGTATGGGAGA gave a TetR repression strength of 0.093. Turning to TCCCCCGAAGTGCACGAGA, the TetR repression strength came to 0.256.

With TCCCAGCTAGTGTTAGAGA, the TetR repression strength was 0.22. In the case of TCCCAGGAAGTGGCGGAGA, the TetR repression strength came to 0.186. TCCCCGTTAGTGGCGGAGA: the TetR repression strength came out at 0.108. In turn, TCCCACTCAGTGCTTGAGA registered a TetR repression strength of 0.298.

For TCCCAGTGAGTTTGCGAGA, the TetR repression strength was 0.212.

TCCCTTTGAGTACAGGAGA displayed a TetR repression strength of 0.318. The sequence TCCCGGCTAGTGTTGGAGA returned a TetR repression strength of 0.166. Next, TCCCTGGTAGTAGCGGAGA: 0.221; TCCCACTTAGTTAAGGAGA: 0.182. As for TCCCCGGTAGTGCAAGAGA, the TetR repression strength is 0.286. TCCCTTTGAGTGCACGAGA: the TetR repression strength was 0.522. Sequence TCCCTTGAAGTGACGGAGA came in with a TetR repression strength of 0.317. Next, TCCCGAAGAGTGCAGGAGA: 0.58. On to TCCCTGGCAGTCCGTGAGA, for which the TetR repression strength turned out to be 0.177. Consider TCCCGGGAAGTAGGAGAGA, for which the TetR repression strength turned out to be 0.24.

TCCCGCCCAGTAGCGGAGA: the TetR repression strength worked out at 0.173. Next, TCCCGAGTAGTCGTAGAGA: 0.0921. Consider TCCCGTACAGTCTGGGAGA, for which the TetR repression strength was 0.133. The sequence TCCCCGGCAGTGCTTGAGA showed a TetR repression strength of 0.0239. In the case of TCCCGCAGAGTCGACGAGA, the TetR repression strength stood at 0.518.

TCCCGGACAGTGCGGGAGA had a TetR repression strength of 0.162. In turn, TCCCGTAGAGTGGGTGAGA showed a TetR repression strength of 0.1.

As for TCCCGCTGAGTGTTGGAGA, the TetR repression strength worked out at 0.0653.

TCCCTAAAAGTGGTAGAGA came in with a TetR repression strength of 0.0296. Regarding TCCCAAGAAGTCGGTGAGA, the TetR repression strength amounted to 0.0715. Next, TCCCGCCTAGTCAGCGAGA: 0.0159; TCCCATGCAGTGTGAGAGA: 0.188; TCCCTCAAAGTCTATGAGA: 0.367.

Consider TCCCGGCGAGTCGAGGAGA, for which the TetR repression strength turned out to be 0.214. The sequence TCCCTGCTAGTCAGGGAGA displayed a TetR repression strength of 0.331. In the case of TCCCGGTGAGTCCGTGAGA, the TetR repression strength amounted to 0.0804. As for TCCCAAGCAGTGGTCGAGA, the TetR repression strength was 0.494. For TCCCAGCGAGTGCTGGAGA, the TetR repression strength was 0.28.
